Assay results from PubChem BioAssay (NCATS).
Inconclusive results, whose numbers are uncertain, are shown with a selection of clear calls. No potency is given beside an inconclusive call; the fits are too rough. Active and inactive are the calls of the source. Calls follow the shape of the dose curve; as a rule, active = well fitted inhibition curve with a large enough effect; inconclusive = small, poorly fitted or top-dose-only effect; inactive = no such curve, though single readings can be large or run the other way.

assay: Confirmatory screen NINDS Rhodamine qHTS for Zika virus inhibitors (AID 1347161); settings: purified enzyme assay, Rhodamine110 substrate fluorescence, 15 min; series mostly up to 114 µM; also: nearly all actives have a fitted effect of over 60% in size
Text: Avindra Nath, Ph.D., National Institute of Neurological Disorders and Stroke (NINDS), Bethesda, MD
Radhakrishnan Padmanabhan, Ph.D., Georgetown University (GU), Washington D.C.
Zika Virus causes congenital defects, including microcephaly and is associated with Guillain-Barre syndrome, eningoencephalitis and myelitis in infected adult. […] Using a target-based approach, we hope to establish a screening paradigm to uncover novel, cell-active NS2B-NS3 protease (Zika Virus) specific inhibitors from NCATS' collection of small molecules using qHTS.
Four assay panel was created to identify potential Zika Virus inhibitors. Namely, (1) GU unlinked NS2B-NS3 AMC tagged protease qHTS, (2) GU unlinked NS2B-NS3 Rhodamine tagged protease qHTS, (3) NINDS linked NS2B-NS3 AMC tagged protease qHTS, (4) NINDS linked NS2B-NS3 Rhodamine tagged protease qHTS. Active compounds were re-acquired and re-screened to confirm inhibition. Inhibitors were further screened against various confirmatory and counterscreens in dose response format.
Early Translation Branch (ETB)
National Center for Advancing Translational Sciences (NCATS), Rockville, MD
National Institute of Health (NIH), Bethesda, Maryland
For the linked assay, Nath lab (NINDS) provided the purified linked NS2B-NS3 protease which is consists of hydrophilic domain of NS2B linked to the NS3 protease domain by a flexible (-[…]-) linker. Control compound aprotinin is obtained from Thermo Scientific (#78432; Waltham, Massachusetts). Rhodamine110 substrate ([N-Cbz]-Nle-Lys-Arg-Arg-Rhod110-Arg-Arg-Lys-Nle-[N-Cbz]) was purchased from either Genscript or Bachem.
1536-well Protease (Rhodamine110 Substrate) Assay:
Briefly, 3 microL of enzyme (25 nM final concentration), in assay buffer (10 mM Tris-HCl pH 8.0 with 0.01% Tween 20) were dispensed into a 1,536-well solid-bottom black plate (Greiner Bio One, Monroe, NC). Twenty-three nL of compounds (final concentration range 7.28 nM to 114 microM) or control Aprotinin (final concentration range 3.47 nM to 114 microM) were transferred via Wako Pin-tool (Wako Automation, Richmond, VA). Samples were incubated (room temperature, protected from light) for 15 minutes followed by a 1 microL Rhodamine110 substrate addition (1.5 microM final concentration). Plates were then immediately read on a ViewLux High-throughput CCD imager (PerkinElmer, Waltham, MA) equipped with FITC fluorescence optics (480(20) nm excitation, 540(25) nm emission), then incubated (room temperature, protected from light) for 15 minutes (~15% conversion). The change in fluorescence intensity over the 15-minute reaction period was normalized against no-inhibitor and no-enzyme controls and the resulting percent inhibition data were fitted to a 4-parameter Hill equation. Aprotinin was used as intraplate control.
Potency is read from the fitted curve at half-maximal effect; tags tell the direction and shape of the fitted curve.

SMILES	Potency
CN(Cc1cnc2nc(N)nc(N)c2n1)c1ccc(C(=O)N[C@@H](CCC(=O)O)C(=O)O)cc1	inconclusive [inhibitor, full curve, poor fit]
OCCn1cc(-c2cnc3nnn(Cc4ccc5ncccc5c4)c3n2)cn1	inconclusive [inhibitor, single point]
O=S(=O)(O)c1ccc2c(N=Nc3ccc(S(=O)(=O)O)c4ccccc34)c(O)c(S(=O)(=O)O)cc2c1	active: 3.16 µM
O=c1n(CCCN2CCN(c3cccc(Cl)c3)CC2)nc2ccccn12	inactive
CC(C)(Sc1cc(C(C)(C)C)c(O)c(C(C)(C)C)c1)Sc1cc(C(C)(C)C)c(O)c(C(C)(C)C)c1	inactive
OCc1ccc(-c2nn(Cc3ccccc3)c3ccccc23)o1	inconclusive [inhibitor, partial curve]
CCN1CCN(Cc2ccc(-c3cc4c(N[C@H](C)c5ccccc5)ncnc4[nH]3)cc2)CC1	inactive
Cc1ccc(C(=O)Nc2cccc(C(F)(F)F)c2)cc1-c1ccc2nc(NCCN3CCOCC3)ncc2c1	inactive
COc1ccc(-c2ccc3c(N4CCOCC4)nc(N4C[C@@H](C)O[C@@H](C)C4)nc3n2)cc1CO	inconclusive [inhibitor, partial curve]
COc1cc(Cl)cn2c(-c3cccc(NC4CNC4)n3)cnc12	inconclusive [inhibitor, partial curve, poor fit]
CCN(CC)CCCC(C)Nc1ccnc2cc(Cl)ccc12 (configuration not stated)	inactive
CCN1CCc2nc(N)oc2CC1	inactive
